This is one part of the list. At the low end of the ranking the order means little.

Here are results for 37 sequences from article PMC5892938.

In this assay the target is GST-SBP-SLBP (stem-loop binding protein) (UniProt Q14493). In words: targeted RNA Bind-n-Seq.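 Note: DESeq read counts versus GST-SBP nonspecific binding control pulldown.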 As to conditions: RBNS binding buffer: 25 mM Tris pH 7.5, 150 mM KCl, 3 mM MgCl2, 0.1% Tween, 0.5 mg/mL BSA, 1 mM DTT; 27 nM protein, 750 pM RNA pool; temperature not stated; high values mean tight binding.
As to “GGUCACGUCUCAAUCAACUCAUCUCCCAGGGAAAGCCCUGGCAUUCUCAACAGCUCGCAGUCAAG”, the binding signal (log2 fold change) is -0.346.
As for “GGUCACGUCUCAAUCAACUCAAUCCCAGGAGUUUUCUCCUGUAUAGUCAACAGCUCGCAGUCAAG”, the figure is 0.0769.
As for “GGUCACGUCUCAAUCAACUCUAUUCCCAGGGAAAGCCCUGGUUUUCUCAACAGCUCGCAGUCAAG”, the figure is -0.149.
As for “GGUCACGUCUCAAUCAACUCCUACGAGGGGGGGAAAACCCCUUUACCCUCUUUUUCAACAGCUCGCAGUCAAG”, the figure is -0.135; as for “GGUCACGUCUCAAUCAACUCCCUAGAGGGGGGGAAAACCCCUUUACCCUCAACAUCAACAGCUCGCAGUCAAG”, 0.0354.
In the case of “GGUCACGUCUCAAUCAACUCAUUAGAGGGGGGGAAAACCCCUUUACCCUCCAAUUCAACAGCUCGCAGUCAAG”, the binding signal (log2 fold change) is -0.269.
The same measure for “GGUCACGUCUCAAUCAACUCAGUCCCCAGGGAAAGCCCUGGCUAAUUCAACAGCUCGCAGUCAAG”: -0.0871; for “GGUCACGUCUCAAUCAACUCAUCCCCCAGGGAAAUCCCUGGUUAUCUCAACAGCUCGCAGUCAAG”: 0.152.
The same measure for “GGUCACGUCUCAAUCAACUCUUCUCCCAGGGAAACCCCUGGCUUUCUCAACAGCUCGCAGUCAAG”: 0.159.
For “GGUCACGUCUCAAUCAACUCUUCCCCCAGGGAAAGCCCUGGCAUACUCAACAGCUCGCAGUCAAG”, the binding signal (log2 fold change) amounted to 0.118.
As for “GGUCACGUCUCAAUCAACUCUUUUUCAGGAGUUUCCUCCUGCUUUCUCAACAGCUCGCAGUCAAG”, the figure is 0.021.
As for “GGUCACGUCUCAAUCAACUCUAUCCCCAGGGAAACCCCUGGUUUUCUCAACAGCUCGCAGUCAAG”, the figure is -0.179; as for “GGUCACGUCUCAAUCAACUCAAUUUCCAGGGAAAACCCUGGCUAAUUCAACAGCUCGCAGUCAAG”, 0.0632; as for “GGUCACGUCUCAAUCAACUCACACGAGGGGGGGAAAACCCCUUUACCCUCUUCAUCAACAGCUCGCAGUCAAG”, -0.414.
The same measure for “GGUCACGUCUCAAUCAACUCAGUCCCAGGAGUUUCCUCCUGUAUUCUCAACAGCUCGCAGUCAAG”: -0.0717; for “GGUCACGUCUCAAUCAACUCUAAAGAGGGGGGGAAAACCCCUUUGCCCUCGAAUUCAACAGCUCGCAGUCAAG”: -0.128.
“GGUCACGUCUCAAUCAACUCAAUUCCAGGAGUUUACUCCUGCAAACUCAACAGCUCGCAGUCAAG”: the binding signal (log2 fold change) was -0.0164.
As for “GGUCACGUCUCAAUCAACUCAAAAGAGGGGGGGAAAACCCCUUUGCCCUCAUAUUCAACAGCUCGCAGUCAAG”, the figure is -0.306; as for “GGUCACGUCUCAAUCAACUCUAUUCCCAGGGAAAGCCCUGGCAUUUUCAACAGCUCGCAGUCAAG”, 0.0411.
Regarding “GGUCACGUCUCAAUCAACUCUUCCUCCAGGGAAAACCCUGGUAUACUCAACAGCUCGCAGUCAAG”, the binding signal (log2 fold change) worked out at 0.192.
On to “GGUCACGUCUCAAUCAACUCAUCCUCAGGAGUUUCCUCCUGUAAAUUCAACAGCUCGCAGUCAAG”, for which the binding signal (log2 fold change) turned out to be 0.101.
As for “GGUCACGUCUCAAUCAACUCUAUGGAGGGGGGGAAAACCCCUUUACCCUCACUUUCAACAGCUCGCAGUCAAG”, the figure is -0.0741.
The same measure for “GGUCACGUCUCAAUCAACUCAGUCCCAGGAGUUUCCUCCUGCUAUCUCAACAGCUCGCAGUCAAG”: 0.0326; for “GGUCACGUCUCAAUCAACUCUAUCCCAGGAGUUUACUCCUGCAUACUCAACAGCUCGCAGUCAAG”: 0.0227.
As for “GGUCACGUCUCAAUCAACUCAAAAGAGGGGGGGAAAACCCCUUUACCCUCACCAUCAACAGCUCGCAGUCAAG”, the figure is 0.563; as for “GGUCACGUCUCAAUCAACUCAUCUUCCAGGGAAAACCCUGGCUAUCUCAACAGCUCGCAGUCAAG”, 0.178; as for “GGUCACGUCUCAAUCAACUCAUUUCCCAGGGAAAGCCCUGGUAUAUUCAACAGCUCGCAGUCAAG”, 0.0734.
With “GGUCACGUCUCAAUCAACUCUUCUUCCAGGGAAAUCCCUGGUUUAUUCAACAGCUCGCAGUCAAG”, the binding signal (log2 fold change) was -0.157.
As for “GGUCACGUCUCAAUCAACUCUAUCUCAGGAGUUUUCUCCUGUAUUUUCAACAGCUCGCAGUCAAG”, the figure is 0.0293.
On to “GGUCACGUCUCAAUCAACUCUACUUCCAGGGAAAUCCCUGGUUUUCUCAACAGCUCGCAGUCAAG”, for which the binding signal (log2 fold change) was -0.176.
Take “GGUCACGUCUCAAUCAACUCCUACGAGGGGGGGAAAACCCCUUUGCCCUCAAAUUCAACAGCUCGCAGUCAAG”: the binding signal (log2 fold change) was -0.403.
The same measure for “GGUCACGUCUCAAUCAACUCUUCUCCCAGGGAAAGCCCUGGCUUUCUCAACAGCUCGCAGUCAAG”: 0.173.
“GGUCACGUCUCAAUCAACUCUUUUUCCAGGGAAACCCCUGGUUUUUUCAACAGCUCGCAGUCAAG”: the binding signal (log2 fold change) amounted to 0.0103.
As for “GGUCACGUCUCAAUCAACUCUUUCUCCAGGGAAACCCCUGGUAAACUCAACAGCUCGCAGUCAAG”, the figure is -0.0496; as for “GGUCACGUCUCAAUCAACUCAUUCGAGGGGGGGAAAACCCCUUUACCCUCACCAUCAACAGCUCGCAGUCAAG”, 0.148; as for “GGUCACGUCUCAAUCAACUCUACUCCCAGGGAAAUCCCUGGUAAAUUCAACAGCUCGCAGUCAAG”, -0.0284.
The same measure for “GGUCACGUCUCAAUCAACUCUAGUCCCAGGGAAAUCCCUGGUUAAUUCAACAGCUCGCAGUCAAG”: -0.0457.
